Source: PubChem BioAssay AID1963576 (National Center for Advancing Translational Sciences (NCATS), 2024)
Screen size: about 46,000 compounds; about 60 (0.1%) were called active. Roughly 3% stayed inconclusive and do not appear here. The call rests on the fitted dose curve; in most records, active means well fitted inhibition curve with a large enough effect; inconclusive means small, poorly fitted or top-dose-only effect; inactive means no such curve, though single readings can be large or run the other way. The list shows a part of the results.

test: Primary qHTS assay for Inhibitors of ovarian cancer metastasis using an organotypic tumor microenvironment (TME) model.; further: nearly all actives have a fitted effect of over 65% in size;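 on activity change, negative = inhibition: plate controls were DMSO wells for no effect and tomatine positive control wells for full effect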; details: SKOV3ip1-GFP adhesion/invasion on 3D omental model, fluorescence; series mostly up to 45.8 µM; activity change, negative = inhibition: at the top concentration
How it was run: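 A 3D layer of primary human omental fibroblasts, mesothelial cells, fibronectin and collagen I, grown 48 hr, received SKOV3ip1-GFP cells in serum-free medium plus compounds at 0.36-46 umol/L. After 2 hr RT and 16 hr 37 C, fixed adherent GFP cells were counted; normalized to DMSO and tomatine.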

Compound | activity change, negative = inhibition | outcome
COc1ccccc1Nc1nn2c(=O)c3ccc(C(=O)N4CCCC(C)C4)cc3nc2s1 (stereo not given) | inactive: -3.45% | –
Cc1ccc(-n2nc(C)c3c(C(=O)NCc4ccccc4)cc(C4CC4)nc32)cc1 | inactive: -4.75% | –
COc1ccccc1CNS(=O)(=O)c1ccc2c(c1)NC(=O)CC(=O)N2 | inactive: 5.08% | –
COc1ccc(C(=O)Nc2nnc(S(=O)(=O)N(CC(C)C)c3ccc(C)cc3)s2)cc1OC | inactive: -2.24% | –
CCOC(=O)c1sc(NC(=O)C2c3ccccc3Oc3ccccc32)c(C(=O)OCC)c1C | inactive: 0.94% | –
CCn1cc(C(=O)NCc2ccccc2Cl)c(=O)c2cc(S(=O)(=O)N3CCc4ccccc4C3)ccc21 | – | inactive
COc1ccccc1CNC(=O)CCCn1c(=O)c2ccccc2n(CC(=O)Nc2c(C)cc(C)cc2C)c1=O | – | inactive
O=C(CSc1nc(=O)n(CCN2CCOCC2)c2c1CCC2)Nc1ccccc1 | inactive: 0.448% | –
COCCCNC(=O)c1ccc2c(c1)N(Cc1ccccc1)C(=O)c1ccccc1S2 | – | inactive
CC(=O)c1ccc(NC(=O)COc2ccccc2-c2nc(-c3cccc(C)c3)no2)cc1 | inactive: 2.46% | –
Cc1ccccc1Nc1nc(-c2cccc(Cl)c2)c2c(n1)-c1ccccc1OC2 | inactive: 6.25% | –
CC(NC(=O)Cn1c(=O)oc2cc(S(=O)(=O)NCc3ccccc3)ccc21)c1ccccc1 (stereo not given) | inactive: 4.46% | –
COc1ccc(NC(=O)CSc2nnc(NC(=O)Nc3ccccc3)s2)cc1OC | – | inactive
O=C(Nc1ccc(S(=O)(=O)Nc2ncccn2)cc1)c1ccccc1Cl | inactive: -2.29% | –
Cc1ccc2c(c1)N(C(=O)CCC(=O)NCc1ccccc1Cl)CC(C)O2 (stereo not given) | inactive: -3.41% | –
COC(=O)c1cccnc1-n1c(=O)c2cccnc2n(CC(=O)Nc2ccc(C)cc2C)c1=O | inactive: 4.08% | –
O=C(Nc1cc(C(F)(F)F)ccc1Cl)c1cc(-c2ccc3c(c2)OCCO3)on1 | – | inactive
Cn1c(=O)c2c(ncn2CC(=O)Nc2cccc(Cl)c2Cl)n(C)c1=O | inactive: -6.21% | –
CN(C(=O)Cn1cc(S(=O)(=O)Cc2ccccc2Cl)c2ccccc21)c1ccccc1 | inactive: 20.4% | –
COc1ccc(-c2nn3c(-c4ccccc4C)nnc3c3ccccc23)cc1 | – | inactive
Cc1cccc(NC(=O)Nc2nnc(N(C)Cc3ccccc3)s2)c1 | inactive: 6.9% | –
CC(=O)c1ccc(NC(=O)c2sc(-n3nc(C)c(Cc4ccccc4)c3C)nc2C)cc1 | inactive: 6.43% | –
Cc1ccc(Cl)cc1N1CCN(S(=O)(=O)c2ccc3c(c2)CC(C)N3C(=O)C2CCC2)CC1 (stereo not given) | inactive: 3.25% | –
CCOCCCNc1ncnc2onc(C)c12 | – | inactive

Compound | activity change, negative = inhibition | outcome
Cc1noc(/C=C/c2cccs2)c1S(=O)(=O)N1CCC(C(=O)NCc2ccccc2Cl)CC1 | inactive: 3.81% | –
CCN(Cc1ccccc1)Cc1c(O)ccc2c(=O)c(-c3ccc(Cl)cc3Cl)coc12 | inactive: 2.47% | –
COc1cccc(Cn2c(CNC(=O)c3cc([N+](=O)[O-])ccc3Cl)nc3cccnc32)c1 | inactive: -61.6% | –
Cc1ccccc1C(=O)NC1(C(F)(F)F)C(=O)Nc2c1c(=O)[nH]c(=O)n2-c1ccc(F)cc1 (stereo not given) | inactive: 1.43% | –
CCCc1cnc2c(c1SCC(=O)Nc1ccc(C)c(Cl)c1)c(=O)n(C)c(=O)n2C | inactive: -9.31% | –
CCCCNC(=O)CCCn1c(=O)c2ccccc2n(CC(=O)Nc2ccccc2OCC)c1=O | inactive: 4% | –
COc1ccc(CNc2ncnc3onc(-c4ccc(F)cc4)c23)cc1 | inactive: -3.82% | –
CCOc1ccccc1NC(=O)N1CCc2c(sc(C)c2CC)C1c1ccccc1 (stereo not given) | inactive: 4.71% | –
Cc1ccc(NC(=O)c2cc(S(=O)(=O)N3CCc4ccccc43)cn2C)c(Cl)c1 | inactive: -28.5% | –
CCc1cccc(NC(=O)C2CCC(CNS(=O)(=O)c3ccc(Br)s3)CC2)c1 (stereo not given) | inactive: -9.84% | –
CCc1nc2cccnc2n1-c1ccc(CC(=O)Nc2cccc(C)c2C)cc1 | – | inactive
c1ccc(CN2CCN(c3ncnc4c3cnn4-c3ccccc3)CC2)cc1 | inactive: -13.2% | –
O=C(Cn1c(=O)n(-c2ccc(Cl)cc2)c(=O)c2sc3ccccc3c21)NC1CCCC1 | inactive: -5.4% | –
Cc1ccc(S(=O)(=O)Cc2ccc(C(=O)N3CCN(c4cccc(Cl)c4)CC3)o2)cc1 | inactive: -10.3% | –
COC(=O)c1ccccc1NC(=O)c1cc2cc(C)ccc2n1C | inactive: -25.7% | –
CCOc1ccc(-c2c(C)nn3c(C)c(C(=O)NCCc4ccc(Cl)cc4)cnc23)cc1OCC | inactive: -6.05% | –
Cc1ccccc1OCC(=O)Nc1cccc(C(=O)OCc2cc(=O)n3c(C)csc3n2)c1 | inactive: 0.256% | –
O=C(NCCc1ccccc1)C1CCC(CNS(=O)(=O)c2ccc(Cl)cc2)CC1 (stereo not given) | inactive: 0.277% | –
Cc1ccc(C)c(N2CCN(C(=O)NCc3noc4ccc(C)cc34)CC2)c1 | inactive: -9% | –
CCSc1ccccc1C(=O)Nc1ccc(-c2nc3ccccc3s2)c(O)c1 | – | inactive
Cc1ccccc1Cn1c2ccccc2c2cnn(CC(=O)NCc3ccccn3)c(=O)c21 | inactive: -6.42% | –
Cc1ccc(C)c(S(=O)(=O)c2nnn3c2nc(NC2CCCCC2)c2sccc23)c1 | inactive: 7.63% | –
CCc1ccc(-n2nc(CO)c(C(=O)NCCCc3ccccc3)n2)cc1 | – | inactive
CC1CCN(S(=O)(=O)c2ccc3c(ccn3CCC(=O)NCc3ccccc3F)c2)CC1 | inactive: -9.08% | –

Compound | activity change, negative = inhibition | outcome
Cc1ccc(-c2nc(NC(=O)CSc3nc(C)nc4sc5c(c34)CCCC5)ns2)cc1 | – | inactive
Cc1ccc(Nc2nc3ccccc3c3nncn23)c(Cl)c1 | – | inactive
CCOc1ccc(C(=O)NC2CC(=O)N(c3ccc(C)cc3)C2)cc1OCC (stereo not given) | – | inactive
CCOC(=O)c1cccc(NC(=O)C2Cc3ccccc3N2C(=O)c2ccccc2)c1 (stereo not given) | inactive: -0.0495% | –
O=C(Nc1ccc2c(c1)N(C1CCCC1)C(=O)c1ccccc1S2)c1ccccc1F | inactive: -7.96% | –
Cc1ccc(C)c(Cn2c(=O)n(C(C)C)c(=O)c3oc4ccccc4c32)c1 | inactive: 1.73% | –
Cc1ccccc1NC(=O)CCS(=O)(=O)c1cc(Br)cc2c1N(C(=O)C1CC1)CC2 | inactive: 14.3% | –
CCc1nn(CC(=O)N2CCCCC2)c(=O)c2cc3sc(C)cc3n12 | inactive: 1.27% | –
Cc1ccccc1CNC(=O)CN1C(=O)C2CCCCN2c2ccc(C(=O)N3CCCC3)cc21 (stereo not given) | inactive: 11.7% | –
COc1ccc(NC(=O)c2c(-c3ccccc3)c(-c3ccccc3)nn(C)c2=O)cc1OC | inactive: -8.51% | –
Cc1cccc(-n2ncc3c(Nc4ccc(C)c(Cl)c4)ncnc32)c1 | – | inactive
O=C(Nc1ccc(S(=O)(=O)Nc2ncccn2)cc1)c1cc(=O)c2ccccc2o1 | inactive: 0.555% | –
Cc1ccc(C(=O)c2oc3ccccc3c2NC(=O)COc2ccc(C(C)C)cc2)cc1 | inactive: -9.6% | –
COc1ccc(-c2cn3cccnc3n2)cc1NC(=O)Nc1ccc(Cl)cc1 | inactive: -23.4% | –
O=C(CC1C(=O)N(c2ccccc2)C(=O)N1Cc1ccc(F)cc1)Nc1cccc(F)c1 (stereo not given) | inactive: -5.58% | –
CCOc1ccc(NC(=O)c2ccc3c(c2)CCN3S(=O)(=O)CC)cc1 | inactive: -7.12% | –
CCN(CC)C(=O)Cn1c(=O)cc(C)c2c(C)nn(-c3ccc(C)cc3)c21 | inactive: 4.28% | –
COc1ccc(-c2cc(-c3ccccc3)nc3c2COc2ccc(F)cc2-3)cc1 | inactive: 2.45% | –
Cc1ccc(S(=O)(=O)N2CCCc3cc(NS(=O)(=O)c4cc(C)ccc4C)ccc32)cc1 | inactive: -6.97% | –
COc1ccc2[nH]c3c(c2c1)CCN(C(=O)c1cccc(Cl)c1)C3c1ccc(F)cc1 (stereo not given) | – | inactive
Cc1ccc(CSc2ncc(Cl)c(C(=O)NCc3ccccc3)n2)cc1 | – | inactive
CC(C)c1nn2c(=O)cc(COC(=O)c3ccc(NC(=O)C4CCCCC4)cc3)nc2s1 | inactive: -0.683% | –
CCCCN1CCc2nc(Nc3ccc(OC)cc3OC)ncc2C1 | inactive: 4.51% | –
COc1ccc(NC(=O)c2c(NC(=O)COc3ccccc3)sc3c2CCC(C(C)(C)C)C3)cc1 (stereo not given) | inactive: 2% | –

Compound | activity change, negative = inhibition | outcome
Cc1ccc(CN(Cc2ccco2)C(=O)c2ccc(OCC(C)C)cc2)cc1 | inactive: 219% | –
CCOC(=O)c1cc(-c2ccc(F)cc2)n(CC(=O)NC2CCCCCC2)c1C | – | inactive
Cc1nc2sccn2c(=O)c1S(=O)(=O)Nc1cc(Cl)ccc1O | inactive: -9.65% | –
Cc1cccc(NS(=O)(=O)c2ccc3[nH]c4c(c3c2)CCCCCC4)c1 | inactive: -12.7% | –
CCOc1cccc2c1N[C@@H](c1ccc(C(=O)O)cc1)[C@H]1CC=C[C@@H]21 | – | inactive
Cc1ccc(-n2nc(C)c3c(C)c(CCC(=O)NCc4ccccc4Cl)c(C)nc32)cc1C | – | inactive
Cc1ccc2c(c1)N(C(=O)N1CCC(C(=O)NCCc3ccc(Cl)cc3)CC1)CC(C)O2 (stereo not given) | inactive: 0.411% | –
Cc1ccc(C)c(N2CCN(C(=O)c3cc4c(=O)n(Cc5ccccc5)ccc4nc3C)CC2)c1 | inactive: -7.38% | –
COc1ccc2sc(N(Cc3cccnc3)C(=O)C3CCCCC3)nc2c1 | – | inactive
O=C(Cn1c(=O)n(CC2CCC(C(=O)NCCc3ccccc3)CC2)c(=O)c2ccccc21)Nc1ccccc1 (stereo not given) | – | inactive
CCOc1ccccc1CNC(=O)C1CCN(c2nnc(-n3c(C)ccc3C)s2)CC1 | – | inactive
CCCCOc1ccc(C2=NC(c3ccncc3)=Nc3ccc(OCC)cc3N2)cc1 | inactive: 3.5% | –
COc1ccc(NC(=O)C(Cc2ccccc2)NS(=O)(=O)c2ccc3c(c2)CCC(=O)N3)c(OC)c1 (stereo not given) | – | inactive
CCc1ccc(NC(=O)CN2C(=O)C(c3ccc(C)cc3)=NC23CCCCC3)cc1 | inactive: 10.2% | –
CCc1ccc(CNC(=O)Cn2nc(C)n3c(cc4cc(C)ccc43)c2=O)cc1 | inactive: -4.75% | –
Cc1cccc(Cn2cccc2CNS(=O)(=O)c2ccccc2F)c1 | inactive: 6.81% | –
CCN(CC)CCOC(=O)c1ccc(NC(=O)Cn2ncc3c2-c2cc(C)ccc2OC3)cc1 | – | inactive
Cc1ccc(Cn2c(=O)c3ccccc3n3c(-c4cccc(O)c4)nnc23)cc1 | inactive: 15.4% | –
COc1ccc(NC(=O)CSc2nc3nc(C)c(Cc4ccccc4)c(C)n3n2)cc1OC | inactive: -8.25% | –
O=C(C1CCN(S(=O)(=O)c2cccc3nonc23)CC1)N1CCN(c2cccc(Cl)c2)CC1 | inactive: -1.27% | –
CC(C)OCCCn1c(SCC(=O)c2ccccc2)nc2c(sc3ccccc32)c1=O | inactive: 1.09% | –
Cc1cc(C)n2nc(CNS(=O)(=O)c3ccc(C)c(C)c3)nc2n1 | inactive: 2.41% | –
Cc1nn(-c2ccc(F)cc2)c(-n2cccc2)c1C(=O)NCCc1ccc(Cl)cc1 | – | inactive
